# Source: the supplement of paper PMC10126150
# Values marked as one replicate rest on one cluster of the flow cell; about a third of the high ones do not repeat.
# Test system: ATP
# Assay: switch fluorescence ratio, 500 uM ATP over buffer (Cy3 cluster intensity, sum of 5 cycles each) (fold (ratio)); higher = stronger signal-on switching upon ATP binding; sequences stand for … in TCGTCGGCAGCGTCAGATGTGTATAAGAGACAGTTTTTTTTTTTTTTTTTTTTTTTTT…TC
# Details: aptamer strand: ATP DNA aptamer (quencher-CACCTGGGGGAGTATTGCGGAGGAAGG + anchor), 100 nM annealed; ATP concentration: 500 uM; one replicate
# Procedure, shortened: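 Between each of five buffer/ATP cycles, the flow-cell was stripped with NaOH and re-annealed. Each cycle imaged Cy3-labelled switching-strand clusters, annealed to 100 nM quencher-labelled ATP aptamer on a modified Illumina MiSeq flow-cell, first in selection buffer and then after 15 min with 500 uM ATP at 22 °C. The fluorescence ratio is summed target-cycle over summed buffer-cycle Cy3 intensity per cluster, averaged per switch-domain sequence, with clusters outside 100-1000 RFU excluded.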
# 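Note: ATP exposure 15 min at 22 °C before imaging.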
sequence,measurement,value
GAGTGTAGTA,switch fluorescence ratio,1.04
GAGGCTACAT,switch fluorescence ratio,1.04
GTGAGCGAGA,switch fluorescence ratio,0.964
GTGAAAGAGC,switch fluorescence ratio,0.952
GAGAATAAGA,switch fluorescence ratio,1.02
TATCTCAGGA,switch fluorescence ratio,0.997
CGTAACTACC,switch fluorescence ratio,1.23
GAAACTAGAA,switch fluorescence ratio,0.995
AGCTAATGT,switch fluorescence ratio,0.99
CGCATAGGTG,switch fluorescence ratio,2.36
AAGGACGCGC,switch fluorescence ratio,0.974
GGATGCTGCC,switch fluorescence ratio,1.02
TTGCGTTGGT,switch fluorescence ratio,0.992
GATCTATATA,switch fluorescence ratio,1.01
CCAGAGATAC,switch fluorescence ratio,2.87
GAGTTGAGCA,switch fluorescence ratio,0.966
GTTAAGACCT,switch fluorescence ratio,1.3
GCACCGTTGG,switch fluorescence ratio,1.03
ACGTTTAGCT,switch fluorescence ratio,1.08
GCCCGGTGAC,switch fluorescence ratio,1.54
GTGGCCGGTG,switch fluorescence ratio,1.01
TGTTGGTACG,switch fluorescence ratio,0.959
CAACGGGATG,switch fluorescence ratio,0.994
CATCGCCGA,switch fluorescence ratio,1.06
AATTAGGCCT,switch fluorescence ratio,1.04
GTCTGAGTTT,switch fluorescence ratio,1.01
AAGAAAATTT,switch fluorescence ratio,1.06
AAGGACGGT,switch fluorescence ratio,1.03
TATGCGAATG,switch fluorescence ratio,0.974
TTATATAACG,switch fluorescence ratio,1.02
TTCAGCCCTC,switch fluorescence ratio,1.07
ATCAGATGCG,switch fluorescence ratio,1.01
CCGACAAGTT,switch fluorescence ratio,3.35
ATAATGTGT,switch fluorescence ratio,0.963
TTGTACTTGA,switch fluorescence ratio,0.99
TTTGCGTAG,switch fluorescence ratio,0.934
CTTGGGATT,switch fluorescence ratio,1.01
CGTACATATA,switch fluorescence ratio,1.05
CTTACTCAAG,switch fluorescence ratio,1.06
CGAGAACGGC,switch fluorescence ratio,1.01
ACCCTTGAGT,switch fluorescence ratio,1.04
TATTACGTCT,switch fluorescence ratio,1.01
GCGTTTATCG,switch fluorescence ratio,0.955
ACTCGAGTTA,switch fluorescence ratio,0.988
GTGTCCCCAG,switch fluorescence ratio,1.23
ATAGACTTGA,switch fluorescence ratio,1.01
GTCTGGCCGT,switch fluorescence ratio,1.01
TCTAAGGGTC,switch fluorescence ratio,0.95
ATAAACGTAC,switch fluorescence ratio,1.7
CTTTAGGAAG,switch fluorescence ratio,0.944
ACACGGTTCC,switch fluorescence ratio,1.08
AATCTCTCAA,switch fluorescence ratio,1.02
CCCTGCCGCT,switch fluorescence ratio,1.13
CGTGTGCTCA,switch fluorescence ratio,1.04
CTCACCGAGA,switch fluorescence ratio,0.996
TATACGGCCC,switch fluorescence ratio,0.973
TGTGATGCT,switch fluorescence ratio,1
GAACGTATTT,switch fluorescence ratio,1.04
ATAATGTTGA,switch fluorescence ratio,1
CTTAGGATCC,switch fluorescence ratio,0.967
ATCAAAGGCT,switch fluorescence ratio,0.968
GGGTCTAATA,switch fluorescence ratio,1.01
GCAACGTTT,switch fluorescence ratio,1.03
TCACCCCTTT,switch fluorescence ratio,1.21
TTTTCCCGG,switch fluorescence ratio,1.03
TGAAGAGGGA,switch fluorescence ratio,0.997
ACCACCCTGT,switch fluorescence ratio,1.05
AGACCGATG,switch fluorescence ratio,1.02
ACGAGCTTTT,switch fluorescence ratio,1.05
TCGCAGGCCC,switch fluorescence ratio,3.25
GCGTTTTCAG,switch fluorescence ratio,0.997
AATACGTTGT,switch fluorescence ratio,0.975
TTTGGCAGCT,switch fluorescence ratio,0.971
GGTGGCCCA,switch fluorescence ratio,0.965
AAGGAATCTG,switch fluorescence ratio,0.98
ATTAACACGG,switch fluorescence ratio,1.03
TTCGGGCCTA,switch fluorescence ratio,1.01
ACTTTGTTTC,switch fluorescence ratio,0.972
CAGGGTCGG,switch fluorescence ratio,0.983
CGGTTAGGAG,switch fluorescence ratio,0.995
CTCGGTAGT,switch fluorescence ratio,0.994
CATGACTTAG,switch fluorescence ratio,1.04
GCCGGTGCAT,switch fluorescence ratio,0.963
CACATCCTA,switch fluorescence ratio,1.05
AGTAGGCATG,switch fluorescence ratio,0.906
CTGGGGAGTT,switch fluorescence ratio,0.949
TGAACTTTAC,switch fluorescence ratio,1.26
GTTCTGCGCA,switch fluorescence ratio,1.1
CGCGCACAGG,switch fluorescence ratio,2.49
TTTAGTCAGG,switch fluorescence ratio,0.99
GGTTCGACAT,switch fluorescence ratio,1.03
TTCCGCGGGG,switch fluorescence ratio,1.11
GGGCGCCTTA,switch fluorescence ratio,0.989
CCAATGGGCT,switch fluorescence ratio,0.99
TGCCAAGAGT,switch fluorescence ratio,1.05
CCGGGGATGA,switch fluorescence ratio,1.01
ATGATGGAT,switch fluorescence ratio,0.947
AAGTACACCC,switch fluorescence ratio,1.36
AGTCACATTC,switch fluorescence ratio,1.03
TTTCCTACTT,switch fluorescence ratio,1.17
GCGGCGAGGT,switch fluorescence ratio,1.02
CAGCCCACGG,switch fluorescence ratio,1.11
CCTGTAAGGG,switch fluorescence ratio,0.987
TTGCGATCTG,switch fluorescence ratio,1.03
ACCAAGCTCC,switch fluorescence ratio,1.27
TATTTTCCTA,switch fluorescence ratio,0.971
TCGATAATCT,switch fluorescence ratio,0.983
TTCGCCCAGG,switch fluorescence ratio,6.92
CGGTGGCGGA,switch fluorescence ratio,1.01
TGTGTTCATG,switch fluorescence ratio,0.975
ACTTAGGCCC,switch fluorescence ratio,1
GTGGGCACAT,switch fluorescence ratio,0.961
TCACTATATC,switch fluorescence ratio,1.09
GTATATTAAA,switch fluorescence ratio,0.985
ATAGCGTAAG,switch fluorescence ratio,0.998
GCTGCATCAG,switch fluorescence ratio,1
CGCACGTTTT,switch fluorescence ratio,1.05
CAAAGGATTG,switch fluorescence ratio,1.01
AGTCGTGACT,switch fluorescence ratio,1.01
TAGTTCGGCT,switch fluorescence ratio,0.915
AATCCTGCCT,switch fluorescence ratio,1.33
CGACTCTAG,switch fluorescence ratio,1.03
CCTAGAAGAG,switch fluorescence ratio,1.01
GGACACTCTT,switch fluorescence ratio,1.02
ACTAGTGCTA,switch fluorescence ratio,1.02
GTCACATAGG,switch fluorescence ratio,1.05
ATCGTTATAG,switch fluorescence ratio,0.983
ACCTGGACAT,switch fluorescence ratio,0.995
GGCCTCAGGC,switch fluorescence ratio,0.985
CTAGTACATT,switch fluorescence ratio,1.05
TTCTCCTTGA,switch fluorescence ratio,1.03
GACGCTTGCC,switch fluorescence ratio,1.08
AACGAAACGG,switch fluorescence ratio,1.05
GGGAATTGAT,switch fluorescence ratio,1.04
AACGCTGGCT,switch fluorescence ratio,1.01
CCGTCAATGG,switch fluorescence ratio,3.97
ACAGTCATCG,switch fluorescence ratio,1.04
TCTGTATGTG,switch fluorescence ratio,0.992
TTATAAGTAC,switch fluorescence ratio,1.42
CGGATGGCCC,switch fluorescence ratio,0.958
GGTCGAACT,switch fluorescence ratio,1.07
TGGTGTGTGA,switch fluorescence ratio,1.05
TCTAAGTTG,switch fluorescence ratio,1.01
GGACGTCAAG,switch fluorescence ratio,1
CTCTAAGGGA,switch fluorescence ratio,0.986
TAAGGCATCT,switch fluorescence ratio,1.03
TGTGTTAAGT,switch fluorescence ratio,0.979
CTTTGGAGGG,switch fluorescence ratio,1
CGTATGCCAA,switch fluorescence ratio,0.966
CGAAATAGAC,switch fluorescence ratio,1.07
CACGGAGTAA,switch fluorescence ratio,1.63
GCGCCACCTA,switch fluorescence ratio,1.01
AGAAATTGAA,switch fluorescence ratio,0.965
AGATATCAGC,switch fluorescence ratio,0.994
CATCTGACAG,switch fluorescence ratio,1.07
TTGGGTCTGT,switch fluorescence ratio,0.975
AATGGCGGCG,switch fluorescence ratio,0.997
TTTGTCATAG,switch fluorescence ratio,1.03
AACGACAGAT,switch fluorescence ratio,1.01
AGGGCCATAA,switch fluorescence ratio,0.979
TCACGAAGTT,switch fluorescence ratio,0.959
TCCATGCGCC,switch fluorescence ratio,1.31
TACTGTTGAC,switch fluorescence ratio,1.12
TATGGGCTGT,switch fluorescence ratio,1.01
TGACTAAGAT,switch fluorescence ratio,1
CCGGCCAGCG,switch fluorescence ratio,1.25
CCCACGTCTG,switch fluorescence ratio,1.04
GTTGAGCGAG,switch fluorescence ratio,1.03
CTAAGCTCGC,switch fluorescence ratio,1.05
AGACCCCTCT,switch fluorescence ratio,1.01
TTCAGGCGCA,switch fluorescence ratio,1.14
GGGTTGAGG,switch fluorescence ratio,1.02
TGTGGAGTTA,switch fluorescence ratio,0.986
AACATGAAGA,switch fluorescence ratio,1.01
CATTGTCCCT,switch fluorescence ratio,1.02
ATTCTGTTGG,switch fluorescence ratio,0.96
GTTATGGTGC,switch fluorescence ratio,1.03
TTGGTTGGTC,switch fluorescence ratio,0.926
TTGGCCACGT,switch fluorescence ratio,0.987
GTACCCCTGT,switch fluorescence ratio,1.01
TGCTGTGGGT,switch fluorescence ratio,1.03
GACCGCGCTC,switch fluorescence ratio,1.87
TCTCTGTGGT,switch fluorescence ratio,1.01
ACGCCACG,switch fluorescence ratio,1.49
ATGGCGGAGG,switch fluorescence ratio,1.02
TATAGCCTAT,switch fluorescence ratio,0.976
AGGGGCACGC,switch fluorescence ratio,0.979
CCAAAACTCC,switch fluorescence ratio,1.87
TGATATTTAT,switch fluorescence ratio,1.01
TCGTATTGGA,switch fluorescence ratio,0.993
ATCAAAAGG,switch fluorescence ratio,1.06
ACGTAACTCG,switch fluorescence ratio,1.19
CGTTTGGATA,switch fluorescence ratio,1.07
GTGAACGTTT,switch fluorescence ratio,0.961
ACTAATAACT,switch fluorescence ratio,1.01
GAGGGGTGAT,switch fluorescence ratio,1.07
GAAGAGTCAG,switch fluorescence ratio,1.01
TATGTTCGGG,switch fluorescence ratio,0.939
AGCCCGTATT,switch fluorescence ratio,1.02
TTGGGGACCG,switch fluorescence ratio,1
GGGCCTTGTT,switch fluorescence ratio,1.01
